# The supplement of paper PMC4604168 (melanoma cell lines)
# The list shows a part of the results. Repeats are few or missing, and single values can be far off.
# System: LB2518-MEL
# Experiment: cell count relative to DMSO control; melanoma cells; higher = more viable cells
# Conditions: library dose: standard library concentration; 72 h; first compound 2 µM
# 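Further: cells treated in 1,536-well plates, then fixed and DAPI-stained, with nuclei counted from automated high-throughput microscope images.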
row,Structure (SMILES),cell count [%]
1,C[C@@H](N)c1ccc(C(=O)Nc2ccnc3[nH]ccc23)cc1 + CO[C@@H]1[C@H](N(C)C(=O)c2ccccc2)C[C@H]2O[C@]1(C)n1c3ccccc3c3c4c(c5c6ccccc6n2c5c31)C(=O)NC4 [Midostaurin] (partner dose 0.4 µM),55.1
2,Cn1sc(=O)n(Cc2ccccc2)c1=O + Nc1cccc2c1CN(C1CCC(=O)NC1=O)C2=O [lenalidomide] (partner dose 5 µM),90.2
3,Cn1sc(=O)n(Cc2ccccc2)c1=O + COc1cc2c(Oc3ccc4[nH]c(C)cc4c3F)ncnc2cc1OCCCN1CCCC1 [cediranib] (partner dose 2 µM),94.7
4,C[C@@H](N)c1ccc(C(=O)Nc2ccnc3[nH]ccc23)cc1 + Cn1sc(=O)n(Cc2ccccc2)c1=O [TDZD-8] (partner dose 2 µM),77.2
5,C[C@@H](N)c1ccc(C(=O)Nc2ccnc3[nH]ccc23)cc1 + CC(C)C[C@H](NC(=O)[C@H](Cc1ccccc1)NC(=O)c1cnccn1)B(O)O [Bortezomib] (partner dose 0.005 µM),0.935
6,CCCCCCCCCCCCCCCCCCOP(=O)([O-])OC1CC[N+](C)(C)CC1 [Perifosine] + C#Cc1cccc(Nc2ncnc3cc(OCCOC)c(OCCOC)cc23)c1 [erlotinib] (partner dose 4 µM),63
7,Cn1sc(=O)n(Cc2ccccc2)c1=O + CNC(=O)c1cc(Oc2ccc(NC(=O)Nc3ccc(Cl)c(C(F)(F)F)c3)cc2)ccn1 [sorafenib] (partner dose 2 µM),80.3
8,CCCCCCCCCCCCCCCCCCOP(=O)([O-])OC1CC[N+](C)(C)CC1 [Perifosine] + C[C@]1(c2nc3c(C(N)=O)cccc3[nH]2)CCCN1 [Veliparib] (partner dose 7 µM),74.7
9,Cn1sc(=O)n(Cc2ccccc2)c1=O + Cc1cc(Nc2cc(N3CCN(C)CC3)nc(/C=C/c3ccccc3)n2)n[nH]1 [ENMD2076] (partner dose 0.2 µM),78.3
10,CCCCCCCCCCCCCCCCCCOP(=O)([O-])OC1CC[N+](C)(C)CC1 [Perifosine] + COc1ccc(C2=N[C@@H](c3ccc(Cl)cc3)[C@@H](c3ccc(Cl)cc3)N2C(=O)N2CCNC(=O)C2)c(OC(C)C)c1 [Nutlin-3] (partner dose 0.5 µM),82.8
11,Cn1sc(=O)n(Cc2ccccc2)c1=O + Cn1c(=O)n(-c2ccc(C(C)(C)C#N)cc2)c2c3cc(-c4cnc5ccccc5c4)ccc3ncc21 [NVP-BEZ235] (partner dose 0.02 µM),78.6
12,C[C@@H](N)c1ccc(C(=O)Nc2ccnc3[nH]ccc23)cc1 + Nc1nc(F)nc2c1ncn2[C@@H]1O[C@H](CO)[C@@H](O)[C@@H]1O [fludarabine] (partner dose 1 µM),116
13,C[C@@H](N)c1ccc(C(=O)Nc2ccnc3[nH]ccc23)cc1 + O=C(Nc1cccc(Cl)c1)Nc1ncc(CCNc2ncnc3ccsc23)s1 [SNS314] (partner dose 0.004 µM),110
14,Cn1sc(=O)n(Cc2ccccc2)c1=O + O=C(O)c1ccc2c(c1)nc(Nc1cccc(Cl)c1)c1ccncc12 [CX4945] (partner dose 2 µM),90.5
15,Cn1sc(=O)n(Cc2ccccc2)c1=O + COc1ccc(Cl)c(Nc2nc3ccccc3nc2NS(=O)(=O)c2cccc(NC(=O)C(C)(C)N)c2)c1 [XL147] (partner dose 4 µM),89.1
16,CCCCCCCCCCCCCCCCCCOP(=O)([O-])OC1CC[N+](C)(C)CC1 [Perifosine] + Cn1nnc2c(C(N)=O)ncn2c1=O [temozolomide] (partner dose 10 µM),133
17,CCCCCCCCCCCCCCCCCCOP(=O)([O-])OC1CC[N+](C)(C)CC1 [Perifosine] + Clc1ccc(Nc2nnc(Cc3ccncc3)c3ccccc23)cc1 [vatalanib] (partner dose 10 µM),105
18,C[C@@H](N)c1ccc(C(=O)Nc2ccnc3[nH]ccc23)cc1 + COc1cc(Nc2ncc(F)c(Nc3ccc4c(n3)NC(=O)C(C)(C)O4)n2)cc(OC)c1OC [Tamatinib] (partner dose 2 µM),89.3
19,C[C@@H](N)c1ccc(C(=O)Nc2ccnc3[nH]ccc23)cc1 + COc1cc2c(Oc3ccc4[nH]c(C)cc4c3F)ncnc2cc1OCCCN1CCCC1 [cediranib] (partner dose 2 µM),103
